The list shows a part of the results. The list includes weakly bound sequences.

In the assay the target is T1, MBP-FoxP3dN (UniProt Q99JB6).
T1 sequence: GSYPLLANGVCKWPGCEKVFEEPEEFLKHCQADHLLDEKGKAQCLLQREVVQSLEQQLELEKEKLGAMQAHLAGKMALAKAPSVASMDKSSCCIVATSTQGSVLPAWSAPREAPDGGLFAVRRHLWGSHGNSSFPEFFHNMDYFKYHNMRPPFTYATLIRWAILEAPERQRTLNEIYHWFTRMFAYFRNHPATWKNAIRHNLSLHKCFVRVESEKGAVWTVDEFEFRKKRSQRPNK
The experiment in a line: PD-seq (MBP pull-down with sequencing). Conditions: 20 mM Tris-HCl pH 7.5, 100 mM NaCl, 1.5 mM MgCl2, 0.4 uM protein, 0.1 uM dsDNA library, 30 min, room temperature, amylose pull-down; high values mean tight binding; double strand, one strand shown.
With “GATGATTGTTCTCCCAGCTGATGAATTCATATGATCGAGTAAACAAATTTTCCTAATCTTTCTGTTCAAGCGCCATCTAC”, the binding signal (RPM ratio (pull-down/input)) amounted to 0.401.
For the sequence “GATGATTGTTCTCCCAGCTGATGAATTCGGCATGTCGAGTAAACAAATTTTCCTAATCTTTCTGTTCAAGCGCCATCTAC”, the binding signal (RPM ratio (pull-down/input)) amounted to 5.04.
Then “GATGATTGTTCTCCCAGCTGATGAATTGCCTGAATCGAGTAAACAAATTTTCCTAATCTTTCTGTTCAAGCGCCATCTAC”, with 0.376; and “GATGATTGTTCTCCCAGCTGATGAATTTATGAATTCGAGTAAACAAATTTTCCTAATCTTTCTGTTCAAGCGCCATCTAC”, with 0.946.
Regarding “GATGATTGTTCTCCCAGCTGATGAATTTCACTCGTCGAGTAAACAAATTTTCCTAATCTTTCTGTTCAAGCGCCATCTAC”, the binding signal (RPM ratio (pull-down/input)) came to 0.462.
Consider “GATGATTGTTCTCCCAGCTGATGAATTCACGAGATCGAGTAAACAAATTTTCCTAATCTTTCTGTTCAAGCGCCATCTAC”, for which the binding signal (RPM ratio (pull-down/input)) is 0.252.
Then “GATGATTGTTCTCCCAGCTGATGAATTCCTTTGGTCGAGTAAACAAATTTTCCTAATCTTTCTGTTCAAGCGCCATCTAC”, with 0.395; and “GATGATTGTTCTCCCAGCTGATGAATTATTTCAGTCGAGTAAACAAATTTTCCTAATCTTTCTGTTCAAGCGCCATCTAC”, with 0.258; and “GATGATTGTTCTCCCAGCTGATGAATTTGCATTGTCGAGTAAACAAATTTTCCTAATCTTTCTGTTCAAGCGCCATCTAC”, with 5.29.
Then “GATGATTGTTCTCCCAGCTGATGAATTGCCCCAGTCGAGTAAACAAATTTTCCTAATCTTTCTGTTCAAGCGCCATCTAC”, with 0.347.
With “GATGATTGTTCTCCCAGCTGATGAATTGTGGCGCTCGAGTAAACAAATTTTCCTAATCTTTCTGTTCAAGCGCCATCTAC”, the binding signal (RPM ratio (pull-down/input)) turned out to be 2.07.
Then “GATGATTGTTCTCCCAGCTGATGAATTACGCTCATCGAGTAAACAAATTTTCCTAATCTTTCTGTTCAAGCGCCATCTAC”, with 0.758; and “GATGATTGTTCTCCCAGCTGATGAATTTATGCCTTCGAGTAAACAAATTTTCCTAATCTTTCTGTTCAAGCGCCATCTAC”, with 3.43.
The figure for “GATGATTGTTCTCCCAGCTGATGAATTAGGGAGTTCGAGTAAACAAATTTTCCTAATCTTTCTGTTCAAGCGCCATCTAC” is 0.373; for “GATGATTGTTCTCCCAGCTGATGAATTTTGTGTTTCGAGTAAACAAATTTTCCTAATCTTTCTGTTCAAGCGCCATCTAC” it is 5.3.
The figure for “GATGATTGTTCTCCCAGCTGATGAATTTCCCCCTTCGAGTAAACAAATTTTCCTAATCTTTCTGTTCAAGCGCCATCTAC” is 0.194; for “GATGATTGTTCTCCCAGCTGATGAATTAAGAGCTTCGAGTAAACAAATTTTCCTAATCTTTCTGTTCAAGCGCCATCTAC” it is 0.278.
For the sequence “GATGATTGTTCTCCCAGCTGATGAATTACCTCCCTCGAGTAAACAAATTTTCCTAATCTTTCTGTTCAAGCGCCATCTAC”, the binding signal (RPM ratio (pull-down/input)) stood at 0.279.
The figure for “GATGATTGTTCTCCCAGCTGATGAATTCATTAGTTCGAGTAAACAAATTTTCCTAATCTTTCTGTTCAAGCGCCATCTAC” is 1.59; for “GATGATTGTTCTCCCAGCTGATGAATTCCTGTGTTCGAGTAAACAAATTTTCCTAATCTTTCTGTTCAAGCGCCATCTAC” it is 0.599; for “GATGATTGTTCTCCCAGCTGATGAATTTGTGTCATCGAGTAAACAAATTTTCCTAATCTTTCTGTTCAAGCGCCATCTAC” it is 4.37.
Then “GATGATTGTTCTCCCAGCTGATGAATTACCGTCATCGAGTAAACAAATTTTCCTAATCTTTCTGTTCAAGCGCCATCTAC”, with 0.671; and “GATGATTGTTCTCCCAGCTGATGAATTATAAGGATCGAGTAAACAAATTTTCCTAATCTTTCTGTTCAAGCGCCATCTAC”, with 0.263.
Then “GATGATTGTTCTCCCAGCTGATGAATTCACTCAGTCGAGTAAACAAATTTTCCTAATCTTTCTGTTCAAGCGCCATCTAC”, with 0.284; and “GATGATTGTTCTCCCAGCTGATGAATTATTGAGTTCGAGTAAACAAATTTTCCTAATCTTTCTGTTCAAGCGCCATCTAC”, with 0.631; and “GATGATTGTTCTCCCAGCTGATGAATTAACAGTGTCGAGTAAACAAATTTTCCTAATCTTTCTGTTCAAGCGCCATCTAC”, with 0.495.
In the case of “GATGATTGTTCTCCCAGCTGATGAATTCAAGAATTCGAGTAAACAAATTTTCCTAATCTTTCTGTTCAAGCGCCATCTAC”, the binding signal (RPM ratio (pull-down/input)) amounted to 0.436.
The figure for “GATGATTGTTCTCCCAGCTGATGAATTCGGAAGATCGAGTAAACAAATTTTCCTAATCTTTCTGTTCAAGCGCCATCTAC” is 0.201; for “GATGATTGTTCTCCCAGCTGATGAATTGAATAGCTCGAGTAAACAAATTTTCCTAATCTTTCTGTTCAAGCGCCATCTAC” it is 0.346.
The figure for “GATGATTGTTCTCCCAGCTGATGAATTTCCATTTTCGAGTAAACAAATTTTCCTAATCTTTCTGTTCAAGCGCCATCTAC” is 0.295.
Then “GATGATTGTTCTCCCAGCTGATGAATTGATAAAATCGAGTAAACAAATTTTCCTAATCTTTCTGTTCAAGCGCCATCTAC”, with 0.246; and “GATGATTGTTCTCCCAGCTGATGAATTGGATGCGTCGAGTAAACAAATTTTCCTAATCTTTCTGTTCAAGCGCCATCTAC”, with 1.9; and “GATGATTGTTCTCCCAGCTGATGAATTATAGTTGTCGAGTAAACAAATTTTCCTAATCTTTCTGTTCAAGCGCCATCTAC”, with 1.61.
“GATGATTGTTCTCCCAGCTGATGAATTAAATACCTCGAGTAAACAAATTTTCCTAATCTTTCTGTTCAAGCGCCATCTAC”: the binding signal (RPM ratio (pull-down/input)) was found to be 0.433.
Then “GATGATTGTTCTCCCAGCTGATGAATTGGAACATTCGAGTAAACAAATTTTCCTAATCTTTCTGTTCAAGCGCCATCTAC”, with 0.484; and “GATGATTGTTCTCCCAGCTGATGAATTGGAGCTATCGAGTAAACAAATTTTCCTAATCTTTCTGTTCAAGCGCCATCTAC”, with 0.516; and “GATGATTGTTCTCCCAGCTGATGAATTCGATATGTCGAGTAAACAAATTTTCCTAATCTTTCTGTTCAAGCGCCATCTAC”, with 1.91.
The figure for “GATGATTGTTCTCCCAGCTGATGAATTCGTACTGTCGAGTAAACAAATTTTCCTAATCTTTCTGTTCAAGCGCCATCTAC” is 0.667.
Then “GATGATTGTTCTCCCAGCTGATGAATTCCTCTTGTCGAGTAAACAAATTTTCCTAATCTTTCTGTTCAAGCGCCATCTAC”, with 0.295.
In the case of “GATGATTGTTCTCCCAGCTGATGAATTTGGCACCTCGAGTAAACAAATTTTCCTAATCTTTCTGTTCAAGCGCCATCTAC”, the binding signal (RPM ratio (pull-down/input)) is 1.26.
Then “GATGATTGTTCTCCCAGCTGATGAATTTCTACTATCGAGTAAACAAATTTTCCTAATCTTTCTGTTCAAGCGCCATCTAC”, with 0.365; and “GATGATTGTTCTCCCAGCTGATGAATTGGTGAACTCGAGTAAACAAATTTTCCTAATCTTTCTGTTCAAGCGCCATCTAC”, with 0.36.
Take “GATGATTGTTCTCCCAGCTGATGAATTTCGAGGCTCGAGTAAACAAATTTTCCTAATCTTTCTGTTCAAGCGCCATCTAC”: the binding signal (RPM ratio (pull-down/input)) is 0.411.
Then “GATGATTGTTCTCCCAGCTGATGAATTGACCAGGTCGAGTAAACAAATTTTCCTAATCTTTCTGTTCAAGCGCCATCTAC”, with 0.183; and “GATGATTGTTCTCCCAGCTGATGAATTATGATGATCGAGTAAACAAATTTTCCTAATCTTTCTGTTCAAGCGCCATCTAC”, with 1.63.
Regarding “GATGATTGTTCTCCCAGCTGATGAATTCGTCGCTTCGAGTAAACAAATTTTCCTAATCTTTCTGTTCAAGCGCCATCTAC”, the binding signal (RPM ratio (pull-down/input)) was determined as 0.728.
Consider “GATGATTGTTCTCCCAGCTGATGAATTAGCGAGGTCGAGTAAACAAATTTTCCTAATCTTTCTGTTCAAGCGCCATCTAC”, for which the binding signal (RPM ratio (pull-down/input)) came to 0.321.
The figure for “GATGATTGTTCTCCCAGCTGATGAATTAAACCGTTCGAGTAAACAAATTTTCCTAATCTTTCTGTTCAAGCGCCATCTAC” is 0.376; for “GATGATTGTTCTCCCAGCTGATGAATTCGCGGCGTCGAGTAAACAAATTTTCCTAATCTTTCTGTTCAAGCGCCATCTAC” it is 0.548.
On to “GATGATTGTTCTCCCAGCTGATGAATTGCTAAAATCGAGTAAACAAATTTTCCTAATCTTTCTGTTCAAGCGCCATCTAC”, for which the binding signal (RPM ratio (pull-down/input)) came out at 0.394.
For the sequence “GATGATTGTTCTCCCAGCTGATGAATTTACACGCTCGAGTAAACAAATTTTCCTAATCTTTCTGTTCAAGCGCCATCTAC”, the binding signal (RPM ratio (pull-down/input)) stood at 0.564.
The figure for “GATGATTGTTCTCCCAGCTGATGAATTAGTCTACTCGAGTAAACAAATTTTCCTAATCTTTCTGTTCAAGCGCCATCTAC” is 1.49; for “GATGATTGTTCTCCCAGCTGATGAATTTCCAATATCGAGTAAACAAATTTTCCTAATCTTTCTGTTCAAGCGCCATCTAC” it is 0.339; for “GATGATTGTTCTCCCAGCTGATGAATTGAAACCATCGAGTAAACAAATTTTCCTAATCTTTCTGTTCAAGCGCCATCTAC” it is 0.409.
Regarding “GATGATTGTTCTCCCAGCTGATGAATTGTGTTAGTCGAGTAAACAAATTTTCCTAATCTTTCTGTTCAAGCGCCATCTAC”, the binding signal (RPM ratio (pull-down/input)) came out at 5.98.
Then “GATGATTGTTCTCCCAGCTGATGAATTAGAACAATCGAGTAAACAAATTTTCCTAATCTTTCTGTTCAAGCGCCATCTAC”, with 0.387.
The figure for “GATGATTGTTCTCCCAGCTGATGAATTTCACTACTCGAGTAAACAAATTTTCCTAATCTTTCTGTTCAAGCGCCATCTAC” is 0.353; for “GATGATTGTTCTCCCAGCTGATGAATTTCCAACATCGAGTAAACAAATTTTCCTAATCTTTCTGTTCAAGCGCCATCTAC” it is 0.393.
Take “GATGATTGTTCTCCCAGCTGATGAATTGCGTGTGTCGAGTAAACAAATTTTCCTAATCTTTCTGTTCAAGCGCCATCTAC”: the binding signal (RPM ratio (pull-down/input)) worked out at 2.22.
Then “GATGATTGTTCTCCCAGCTGATGAATTAAAGATCTCGAGTAAACAAATTTTCCTAATCTTTCTGTTCAAGCGCCATCTAC”, with 0.247; and “GATGATTGTTCTCCCAGCTGATGAATTTCAAGACTCGAGTAAACAAATTTTCCTAATCTTTCTGTTCAAGCGCCATCTAC”, with 0.224.
Then “GATGATTGTTCTCCCAGCTGATGAATTTTTTAGCTCGAGTAAACAAATTTTCCTAATCTTTCTGTTCAAGCGCCATCTAC”, with 0.178; and “GATGATTGTTCTCCCAGCTGATGAATTAGGGCGATCGAGTAAACAAATTTTCCTAATCTTTCTGTTCAAGCGCCATCTAC”, with 0.425.
